In all, about 230,000 compounds went through this assay and about 3,600 (1.6%) were called active. This list was built around the results that the source calls inconclusive (neither active nor inactive); the mix of calls is not that of the screen. Calls follow the shape of the dose curve; as a rule, active = well fitted inhibition curve with a large enough effect (not every such curve was filed as active); inconclusive = small, poorly fitted or top-dose-only effect, or another doubt; inactive = no such curve, though single readings can be large or run the other way. Potencies beside an inconclusive call are fits to weak or partial responses and may not hold up.
Molecular target: Lysine-specific demethylase 4E (Homo sapiens) (UniProt B2RXH2)
Chain of UniProt B2RXH2 (B2RXH2 whole entry, looked up, the tested form may be a part): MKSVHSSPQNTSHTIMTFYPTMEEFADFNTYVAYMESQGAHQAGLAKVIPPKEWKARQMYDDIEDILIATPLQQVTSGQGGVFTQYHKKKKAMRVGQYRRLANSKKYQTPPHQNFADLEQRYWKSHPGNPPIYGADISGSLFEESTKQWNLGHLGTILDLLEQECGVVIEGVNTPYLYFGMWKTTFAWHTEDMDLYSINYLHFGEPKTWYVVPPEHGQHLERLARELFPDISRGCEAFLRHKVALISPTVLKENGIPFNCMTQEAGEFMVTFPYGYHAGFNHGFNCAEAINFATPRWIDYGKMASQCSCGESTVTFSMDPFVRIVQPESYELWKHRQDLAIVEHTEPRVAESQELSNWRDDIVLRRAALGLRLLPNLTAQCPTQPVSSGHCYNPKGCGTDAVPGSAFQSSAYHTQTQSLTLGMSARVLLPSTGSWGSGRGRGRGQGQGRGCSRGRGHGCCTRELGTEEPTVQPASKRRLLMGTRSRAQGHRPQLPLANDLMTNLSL
Assay: qHTS Assay for Inhibitors of Human Jumonji Domain Containing 2E (JMJD2E)
Conditions: JMJD2E catalytic domain, FDH-coupled NADH fluorescence (FDH is formaldehyde dehydrogenase); series mostly up to 57.1 µM; activity change, negative = inhibition: at the top concentration
Also: nearly all actives have a fitted effect of over 50% in size.
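For activity change, negative = inhibition in this document: 0% = wells with enzyme and -100% = buffer wells without enzyme.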
Potency is read from the fitted curve at half-maximal effect; tags tell the direction and shape of the fitted curve.

| SMILES | activity change, negative = inhibition | Potency |
| --- | --- | --- |
| Cn1c(CCNC(=O)c2ccco2)nc2cc(NC(=O)C3CCCCC3)ccc21 | inactive: -2.8% |  |
| CCOc1ccc(-c2c(C(=O)N/N=C/c3ccc(OC)cc3)nnn2-c2nonc2N)cc1 |  | inconclusive: 35.5 µM [inhibitor, single point] |
| CC(=O)Nc1cccc(C(=O)/C=C/c2ccco2)c1 |  | inconclusive: 0.005 µM [inhibitor, full curve, poor fit] |
| CC1(C)CC(=O)C2=C(C1)N(CCN1CCOCC1)C1=C(C(=O)CC(C)(C)C1)C2c1ccc(Cl)cc1 |  | inconclusive: 3.55 µM [inhibitor, full curve] |
| N#Cc1c2c(c(-n3cnc4ccccc43)n3c1nc1ccccc13)CCC2 |  | inconclusive: 8.91 µM [inhibitor, single point] |
| Cn1/c(=N/N=C/c2ccc(N3CCOCC3)cc2)sc2ccccc21 |  | inconclusive: 35.5 µM [inhibitor, single point] |
| CSCCC(NS(=O)(=O)c1ccc2c(c1)oc(=O)n2C)C(=O)NCc1cccs1 (centres undefined) | inactive: -3.64% |  |
| C=CCc1ccc(OCCCN2CCCC(C)C2)c(OC)c1 (centres undefined) |  | inconclusive: 35.5 µM [inhibitor, single point] |
| CCOC(=O)CSc1nc(C)cc(C)n1 | inactive: 2.33% |  |
| CCNCCNC(=O)c1c(O)c2cccc3c2n(c1=O)CCC3 |  | inconclusive: 25.1 µM [inhibitor, single point] |
| c1ccc(-c2c(-c3ccccc3)n(Cc3ccco3)c3ncnc(NCCCn4ccnc4)c23)cc1 |  | inconclusive: 14.1 µM [inhibitor, partial curve] |
| COc1ccc(NCC(=O)N/N=C/C=C/c2ccccc2[N+](=O)[O-])cc1 | inactive: 1.81% |  |
| Cc1ccc(-n2c(N)c(C#N)c(-c3ccc(Cl)cc3)c(C#N)c2=O)cc1 |  | inconclusive: 35.5 µM [inhibitor, single point] |
| COCCn1c(N)c(C(=O)NCC2CCCO2)c2nc3ccccc3nc21 (centres undefined) |  | inconclusive: 12.6 µM [inhibitor, partial curve] |
| O=C(Cc1c[nH]c2ccccc12)N/N=C/c1ccccc1O |  | active: 25.1 µM |
| CCn1c(=O)c(C(=O)NCCc2ccccc2)c(O)c2ccccc21 |  | inconclusive: 35.5 µM [inhibitor, single point] |
| Cn1c(-c2cc(Br)ccc2O)n[nH]c1=S |  | inconclusive: 25.1 µM [inhibitor, single point] |
| Cc1cc(C)c2c(n1)nn1c(N3CCN(Cc4ccccc4)CC3)cc(C)nc21 |  | inconclusive: 14.1 µM [inhibitor, partial curve] |
| CCn1c(C)nc2cc(C(N)=O)ccc21 | inactive: -5.94% |  |
| CCS(=O)(=O)c1ccc2c(c1)N(S(=O)(=O)c1ccc(Cl)cc1)CC(C(=O)O)O2 (centres undefined) | inactive: -14.1% |  |
| C#CCOCCOCCOCCNc1nc(N2CCN(C(=O)Cn3cc(CCCCN)nn3)CC2)nc(N2CCN(C(=O)[C@H](C)n3cc(CCCN=C(N)N)nn3)CC2)n1 |  | inconclusive: 39.8 µM [inhibitor, single point] |
| O=C(N/C(=C/c1ccco1)C(=O)N1CCCCC1)c1cccs1 |  | inconclusive: 35.5 µM [inhibitor, single point] |
| COc1cccc(C(=O)C[n+]2ccccc2/C=N/O)c1 |  | inconclusive: 39.8 µM [inhibitor, single point] |

| SMILES | activity change, negative = inhibition | Potency |
| --- | --- | --- |
| CC(C)NNC(=O)c1ccncc1 |  | inactive |
| COc1ccccc1-c1cc(C(=O)N/N=C/c2ccc(C)s2)c2ccccc2n1 |  | inconclusive: 39.8 µM [inhibitor, single point] |
| O=C(c1csc(Nc2cccc3ccccc23)n1)N1CCCC1 |  | inconclusive: 20 µM [inhibitor, partial curve] |
| C=CCn1c(=N)c(C#N)cc2c(=O)n3ccccc3nc21 |  | inconclusive: 3.55 µM [inhibitor, full curve] |
| CCOC(=O)N1CCN(S(=O)(=O)c2ccc(C(=O)Nc3nnc(CSC)o3)cc2)CC1 |  | inconclusive: 39.8 µM [inhibitor, single point] |
| c1ccc(-n2ncc(-c3nn[nH]n3)n2)cc1 |  | inconclusive: 35.5 µM [inhibitor, single point] |
| CCOC(=O)N1CCC(NC(=O)c2oc3c(c2C)-c2[nH]ncc2CC3)CC1 |  | inconclusive: 25.1 µM [inhibitor, partial curve] |
| Cc1c(C(=O)O)sc2nc(SCC(=O)Nc3ccc(S(=O)(=O)NCCCC(=O)O)cc3)[nH]c(=O)c12 | inactive: -18.9% |  |
| CCOC(=O)N1CCC(N2CCCC(C(=O)c3ccc4cc(OC)ccc4c3)C2)CC1 (centres undefined) |  | inconclusive: 3.98 µM [inhibitor, full curve] |
| CC(C)(C)n1nnnc1C(c1ccc(F)cc1)N(Cc1ccc(F)cc1)Cc1ccco1 (centres undefined) | inactive: -5.15% |  |
| CCOC(=O)c1ccc(NC(=O)c2cc(S(=O)(=O)N3CCOCC3)ccc2O)cc1 |  | inconclusive: 31.6 µM [inhibitor, partial curve] |
| Cc1ccc(-c2csc(NNC(=O)c3ccccc3)n2)cc1 |  | inconclusive: 25.1 µM [inhibitor, single point] |
| CCOc1ncccc1C(=O)OCC(=O)Nc1ccc(-c2nc3ccc(C)cc3s2)cc1 |  | inconclusive: 25.1 µM [inhibitor, partial curve] |
| COc1cc(NC(=O)[C@@H](NC(=O)c2ccco2)C(C)C)c(OC)cc1NC(=O)c1ccccc1 |  | inconclusive: 35.5 µM [inhibitor, single point] |
| Nc1nccnc1C(=O)N/N=C/c1ccco1 |  | inconclusive: 35.5 µM [inhibitor, single point] |
| COc1ccc(-n2c(-c3cc(-c4ccccc4)sc3N)n[nH]c2=S)cc1 |  | inconclusive: 0.708 µM [inhibitor, full curve] |
| O=C(CCOc1ccccc1)Nc1ccc(S(=O)(=O)N2CCCC2)cc1 | inactive: -10.9% |  |
| COc1cccc(/C=N/NC(=O)Cn2cnc3c2c(=O)n(C)c(=O)n3C)c1OC |  | inconclusive: 14.1 µM [inhibitor, partial curve] |
| Cc1cc(O)c(-c2n[nH]c3c2C(c2cccc(O)c2)N(Cc2cccnc2)C3=O)cc1Cl (centres undefined) | inactive: -4.7% |  |
| Cc1cc(C)c2c(=O)n(CC(=O)Nc3cccc(F)c3)sc2n1 |  | inconclusive: 35.5 µM [inhibitor, single point] |
| O=C(COC(=O)c1ccc2ccccc2n1)c1ccccc1 |  | inconclusive: 39.8 µM [inhibitor, single point] |
| O=C(Nc1nc(-c2ccc(S(=O)(=O)N3CCCCCC3)cc2)cs1)c1cccs1 |  | inconclusive: 31.6 µM [inhibitor, single point] |
| CCOC(=O)c1sc(-c2ccc(F)cc2)cc1N |  | inconclusive: 31.6 µM [inhibitor, single point] |

| SMILES | activity change, negative = inhibition | Potency |
| --- | --- | --- |
| Cc1ccc(NC(=S)N(C)Cc2cn(C)c3ccccc23)cc1 | inactive: 6.53% |  |
| COc1ccccc1Nc1nc(-c2ccc3c(c2)NC(=O)CO3)cs1 | inactive: -11.4% |  |
| CN(C)CCNC(=O)c1cc2ccccc2oc1=O |  | inconclusive: 31.6 µM [inhibitor, partial curve] |
| Oc1ccc(Br)cc1C=Nc1ccc2[nH]ncc2c1 |  | inconclusive: 28.2 µM [inhibitor, partial curve] |
| CCn1cc(C(=O)O)c(=O)c2cc(F)c(N3CCN(C(=S)NC(=O)c4cccc(F)c4)CC3)cc21 |  | inconclusive: 28.2 µM [inhibitor, partial curve] |
| O=C(/C=C/c1ccc(Cl)cc1)N1CCN(c2ccccn2)CC1 |  | inconclusive: 35.5 µM [inhibitor, single point] |
| Cc1cc2n(n1)C(c1ccc3c(c1)OCO3)Nc1c(C)cccc1-2 (centres undefined) |  | inconclusive: 28.2 µM [inhibitor, partial curve] |
| COc1cccc(Nc2nc(CN3CCOCC3)nc3sc4c(c23)CCCC4)c1 | inactive: -4.58% |  |
| CC1=C(C(=O)OCC(C)C)C(c2cccc(F)c2)N2C(=O)C(C)SC2=N1 (centres undefined) | inactive: 2.93% |  |
| CCNc1nnc(CCn2nc(C)c(Br)c2C)s1 | inactive: -16.7% |  |
| O=C(CCNC(=O)c1ccccc1Cl)Nc1ccc(Cl)c(C(F)(F)F)c1 | inactive: 0.748% |  |
| CCOc1ccccc1N1CCN(C(=O)c2ccc3[nH]c4c(c3c2)CCCC4)CC1 |  | inconclusive: 28.2 µM [inhibitor, single point] |
| COc1cc(/C=C/C(=O)O)ccc1OS(=O)(=O)c1cc(C)ccc1C | inactive: -5.4% |  |
| c1ccc(Oc2cccc(OCCCCN3CCCC3)c2)cc1 |  | inconclusive: 39.8 µM [inhibitor, single point] |
| CSc1ccc(/C=C/C(=O)Nc2ccccc2)cc1 |  | inconclusive: 25.1 µM [inhibitor, single point] |
| O=C(CNc1cccc2ccccc12)N/N=C/c1ccccn1 |  | inconclusive: 28.2 µM [inhibitor, single point] |
| COCCNC(=O)C(c1ccc(C)o1)N(C(=O)c1snc(C(N)=O)c1N)c1cccc(C)c1 (centres undefined) |  | inconclusive: 28.2 µM [inhibitor, partial curve] |
| N#Cc1cnc(NOCc2ccc(Cl)cc2)nc1 | inactive: 13.9% |  |
| CC1CCN(c2nc3ccccc3nc2C(C#N)C(=O)NC2CCCCC2)CC1 (centres undefined) |  | inconclusive: 31.6 µM [inhibitor, single point] |
| N#Cc1ccccc1NC1=CC(=O)CCC1 | inactive: -2.51% |  |
| O=C(N/N=C/c1ccccc1)c1ccc(CN2C(=O)c3cccc4cccc2c34)cc1 |  | inconclusive: 22.4 µM [inhibitor, partial curve] |
| O=C(Cc1ccc(Cl)cc1)Nc1ccc(-c2nnc(-c3ccco3)o2)cc1 |  | inconclusive: 25.1 µM [inhibitor, partial curve] |
| CCOC(=O)/C(C#N)=C/Nc1cc(C(=O)OCC)cc2c(OC)c(OC)ccc12 |  | inconclusive: 31.6 µM [inhibitor, partial curve] |
